# Test results: publication PMC4336329 (PLoS ONE, 2015)
# Among all 310,000 compounds or so, about 14,000 (4.5%) showed an effect of 50% or more. The effect is printed as a negative number. Some of the results follow.
# Molecular target: human ether-à-go-go-related gene (hERG) potassium channel (human, UniProt Q12809)
# Assay: primary screen, population patch clamp on CHO cells stably expressing hERG
# 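Also: peak tail current of the secondary pulse compared with the same well before compound.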
# Sequence of human ether-à-go-go-related gene (hERG) potassium channel (Q12809 whole entry, looked up): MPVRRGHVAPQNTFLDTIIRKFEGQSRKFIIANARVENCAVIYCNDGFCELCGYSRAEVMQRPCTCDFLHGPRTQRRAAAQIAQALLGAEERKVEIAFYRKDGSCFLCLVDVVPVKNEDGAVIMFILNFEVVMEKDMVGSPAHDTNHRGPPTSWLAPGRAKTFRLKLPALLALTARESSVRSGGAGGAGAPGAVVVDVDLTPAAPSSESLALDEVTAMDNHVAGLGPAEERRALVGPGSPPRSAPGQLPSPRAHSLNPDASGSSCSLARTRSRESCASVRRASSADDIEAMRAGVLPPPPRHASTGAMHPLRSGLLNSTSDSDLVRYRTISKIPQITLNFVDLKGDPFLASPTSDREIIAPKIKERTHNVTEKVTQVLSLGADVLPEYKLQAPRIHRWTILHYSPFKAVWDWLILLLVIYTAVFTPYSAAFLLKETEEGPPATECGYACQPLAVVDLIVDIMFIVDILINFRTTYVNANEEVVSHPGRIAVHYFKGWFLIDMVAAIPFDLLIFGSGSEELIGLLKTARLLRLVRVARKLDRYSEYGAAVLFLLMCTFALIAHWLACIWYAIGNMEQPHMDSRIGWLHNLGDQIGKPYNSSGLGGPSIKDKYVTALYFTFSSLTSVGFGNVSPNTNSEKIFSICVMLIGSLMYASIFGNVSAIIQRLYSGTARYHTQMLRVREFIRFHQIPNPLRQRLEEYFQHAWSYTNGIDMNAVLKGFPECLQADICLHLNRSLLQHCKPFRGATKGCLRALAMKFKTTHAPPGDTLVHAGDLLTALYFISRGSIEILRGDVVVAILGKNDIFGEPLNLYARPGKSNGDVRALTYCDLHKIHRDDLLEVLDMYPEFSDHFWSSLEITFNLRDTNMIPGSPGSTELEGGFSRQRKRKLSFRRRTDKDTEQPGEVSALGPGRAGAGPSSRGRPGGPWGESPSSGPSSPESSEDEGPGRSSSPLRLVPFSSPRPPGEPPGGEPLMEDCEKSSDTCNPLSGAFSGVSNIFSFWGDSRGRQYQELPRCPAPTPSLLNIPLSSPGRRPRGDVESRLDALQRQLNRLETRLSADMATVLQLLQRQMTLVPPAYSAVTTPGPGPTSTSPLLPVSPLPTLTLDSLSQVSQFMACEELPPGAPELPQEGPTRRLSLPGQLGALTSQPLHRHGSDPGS
row,Compound,"hERG current change (%, negative = inhibition) at 10uM [%]"
1,COc1cccc(NC(=O)C2CC(=O)N(C)C(=Nc3cccc(F)c3)S2)c1 (centres unmarked),4.91
2,Cc1nn(Cc2ccccc2)c(Cl)c1/C=C/C(=O)OC(C)C(=O)N1CCCC1 (centres unmarked),18.7
3,CSCCC(NS(=O)(=O)c1ccc2c(c1)oc(=O)n2C)C(=O)NC1CCCc2ccccc21 (centres unmarked),1.51
4,CCOc1ccc(NC(=O)c2ccc(OC)cc2)cc1,10.5
5,O=C(CSc1nnnn1-c1ccccc1)N1CCc2ccccc2C1,-47
6,O=S1(=O)CC/C(=N\O)c2ccccc21,24.1
7,COc1ccc(-c2cc3nc(-c4ccccc4)cc(N4CCC(O)CC4)n3n2)cc1,-7.45
8,Cc1cccc(C(C)C)c1NC(=O)COC(=O)Cc1ccsc1,7.1
9,Cc1ccc(/C=N/n2c(C)nnc2C)s1,11.7
10,CC1C(=O)C(C)C(c2ccc(Br)cc2)NC1c1ccc(Br)cc1 (centres unmarked),19
11,CC(C)C(NC=C1C(=O)OC(C)(C)OC1=O)C(=O)O (centres unmarked),8.56
12,CCOc1ccccc1N=C1SC(CC(=O)Nc2ccc(OC)cc2OC)C(=O)N1CCC1=CCCCC1 (centres unmarked),-3.98
13,O=C(NCc1ccc2c(c1)OCO2)c1ccc(CN2CCc3ccccc3C2)cc1,-52.5
14,CC(C)(Cc1ccccc1)/[N+]([O-])=C\c1ccccc1,8.31
15,O=C(/C=C/c1cccc(F)c1)N1CCN(c2ncccn2)CC1,7.29
16,CCN(CC)S(=O)(=O)c1cc(NC(=O)COC(=O)c2ccc(NC(=O)CC#N)cc2)ccc1C,7.1
17,COc1ccccc1/C=C/C1C(C(=O)OCC(C)C)=C(C)N=C2SCCC(=O)N21 (centres unmarked),1.42
18,CN(C)C(CNC(=O)Cc1c(Cl)cccc1Cl)c1ccccc1 (centres unmarked),0.397
19,COc1ccc(OC)c(C(=O)c2ccc(C(=O)Nc3ccc(NC(C)=O)cc3)cc2)c1,14.2

row,Compound,"hERG current change (%, negative = inhibition) at 10uM [%]"
1,COc1ccc(C(C(=O)NC2CCCCC2)N(C(=O)c2sc(C)nc2C)c2ccc(OC)cc2)cc1 (centres unmarked),6.85
2,Cc1nc2oc(C(=O)c3ccc(Br)cc3)c(N)c2c2c1COC(C)(C)C2,11.5
3,COc1ccc(NS(=O)(=O)c2ccc(OC)c(NC(=O)CCC3CCCCC3)c2)cc1,13.3
4,CCCCCn1c(CCCNC(=O)CC)nc2ccccc21,-65.9
5,COc1cc(NS(=O)(=O)c2ccc(NC(=O)c3ccc(S(=O)(=O)N4CCCCC4)cc3)cc2)ncn1,25.9
6,O=C(CCCCCN1C(=O)CCC1=O)Nc1ncn[nH]1,11
7,COc1cccc(Cn2c(Oc3ccccc3)nc3c2c(=O)n(C)c(=O)n3C)c1,-14.3
8,Cc1nnc(-c2cnn(-c3ccccc3)c2N)n1Cc1cccc(C(F)(F)F)c1,-18.8
9,COc1ccc2nc(C)cc(NCc3cccc(C(F)(F)F)c3)c2c1,-31.7
10,CS(=O)(=O)Nc1ccc(-c2cn3cccnc3n2)cc1,7.9
11,COc1ccc(C(=O)Nc2ccc(S(=O)(=O)Nc3nccc(C)n3)cc2)cc1,22.9
12,CN(C)c1ccc(N=Nc2nc3ccccc3n2C)cc1,2.62
13,Br.O=C(CN1CCCCC1)c1cccc(Br)c1,7.58
14,O=c1oc(Nc2ccccc2F)nc2ccccc12,23.7
15,CCOC(=O)N1CCN(C(=O)CSCc2ccc(Cl)cc2)CC1,-28.2
16,O=C1COc2ccc(C(=O)CSc3nc4ccccc4c(=O)n3-c3ccc(Cl)c(Cl)c3)cc2N1,20.4
17,Nc1nnc(SCC(=O)OCC(=O)Nc2ccc(Br)cc2F)s1,9.72
18,Cc1cccc(NC(=S)NC2CC3C=CC2C3)c1 (centres unmarked),-1.72
19,O=C(O)/C=C/c1cn(-c2ccccc2)nc1-c1ccc(-c2ccc([N+](=O)[O-])cc2)o1,4.4

row,Compound,"hERG current change (%, negative = inhibition) at 10uM [%]"
1,CCN1/C(=N\N)c2cccc3cccc1c23,9.75
2,O=C(Nc1nnc(C2CC2)s1)c1cccs1,21.5
3,CSCC[C@H](NC(=O)C1CCN(S(=O)(=O)c2ccc(C)cc2)CC1)C(=O)NCC1CCCO1 (some centres unmarked),-13.2
4,Cc1ccc(C(=O)OCc2cc(=O)n3c(C)csc3n2)s1,-31.7
5,CCNc1nc(NCC)nc(N(C#N)C(C)C)n1,-3.21
6,O=C(N/N=C/c1ccc(F)cc1)c1c(O)c2ccccc2[nH]c1=O,-6.28
7,O=C(COC(=O)c1cn(-c2ccccc2)nc1-c1cccs1)NC1CC1,22.1
8,Cc1c(O)c(C)c2c(c1O)C(=O)C[C@@H](c1ccccc1)O2,17.7
9,COCCCN1C(=O)C2C(C(=O)Nc3cccc(Cl)c3)C3C=CC2(O3)C1C(=O)NC1CCCCC1 (centres unmarked),-6.47
10,CN(CC(=O)N(C)CC(=O)Nc1c(Cl)cccc1Cl)Cc1ccc(Br)s1,-39.7
11,Cc1cccc2cc(C#N)c(NCCCNS(=O)(=O)c3ccc(Cl)cc3)nc12,7.31
12,CCn1c(SCC(=O)Nc2cc(C)c(Cl)cc2OC)nnc1-c1ccco1,-4.93
13,CC(=O)c1cn(CCCCCCCn2cc(C(C)=O)c(=O)[nH]c2=O)c(=O)[nH]c1=O,5.91
14,Cc1cccc(-n2ncc3c(N)ncnc32)c1,-5.94
15,COc1ccc(NC(=O)C(c2ccccc2)c2ccccc2)cn1,-0.151
16,CCCc1nc(SCC(=O)Nc2nnc(CC)s2)c2c(=O)n(C)c(=O)n(C)c2n1,9.61
17,Cc1cccc2sc(N(CCN(C)C)C(=O)C3CCN(S(=O)(=O)c4cccs4)CC3)nc12.Cl,-10.8
18,CCN1CCN(C(=O)/C=C/c2ccc(OC)cc2)CC1,-19.1
